Results published in patent US20150307576A1, “FGF-10 COMPLEXES” (PERMEON BIOLOGICS, INC., priority 2012, published 2015).

Tests used:
Hela cells = test: Internalization of FGF10-mCherry fusion proteins, flow cytometry; assay type: cell-based; conditions: 2 uM, 2 h
Description: (§1) On the day prior to the assay, 10^6 HepG2 or Hela cells were plated in each well of a 6-well plate and incubated in the 37° C. CO2 incubator. The cells were washed once with PBS and then were replenished with 2 mL of growth media containing 2 uM of wild-type (wt) or mutant (mut) FGF10-mCherry fusion proteins and were incubated for 2 h in the 37° C. CO2 incubator. The cells were then washed twice with PBS and detached with 0.25% trypsin/EDTA. The cells were washed one more time with PBS and then analyzed using a BD Accuri™ C6 flow cytometer. The level of internalization was quantified as the mean intensity of mCherry fluorescence in the cells. As shown in the table below, the mCherry fusion proteins that included the tetramutant FGF10 internalized equally well as the mCherry fusion proteins that included wild-type FGF10 in both HepG2 and Hela cells. For both tested fusion proteins, the FGF10 portion is the domain of FGF10 set forth in SEQ ID NO: 2. The mut FGF10 has the following four substitutions: R78A, T114A, E158A, K195A).

HepG2 cells = test: as above; assay type: cell-based; conditions: 2 uM, 2 h
Description: as §1

B1: mut FGF10-mCherry: mCherry fusion protein with tetramutant FGF10 domain, SEQ ID NO: 11 (protein)
chain: MEQKLISEEDLGSGRHVRSYNHLQGDVAWRKLFSFTKYFLKIEKNGKVSGTKKENCPYSILEIRSVEIGVVAVKAINSNYYLAMNKKGKLYGSKEFNNDCKLKERIEANGYNTYASFNWQHNGRQMYVALNGKGAPRRGQKTRRANTSAHFLPMVVHSGHGGGGSGGGGS[about 250 residues omitted]LEGHGHHHHHH
In the case of B1, the “mean intensity of mCherry fluorescence” value (Hela cells) is reported as 62,950 and the “mean intensity of mCherry fluorescence” value (HepG2 cells) is reported as 42,566.
